# Results taken from the supplement of paper PMC9334596.
# Where “and” joins values, the source holds several entries; their conditions need not be identical. Identical values can stand only once. Over roughly 5,300 compounds, “PER2::LUC luminescence relative to vehicle control” has its median near 0.96; the highest 2% begin near 1.3. Some of the results follow.
# Tested on: mPer2Luc MEF
# Experiment: PER2::LUC luminescence relative to vehicle control (fold of vehicle); higher = higher PER2::LUC reporter signal
# Details: 10 µM
# Method in brief: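 The reported values are PER2::LUC luminescence as fold of vehicle control in mouse embryonic fibroblasts carrying the mPer2Luc reporter. Cells were seeded at ~3000 per well in 384-well plates in DMEM with 10% FBS at 37 °C and 5% CO2, and compounds were added at 10 μM 48 h later. ONE-Glo luminescence was read 24 h and 30 h after treatment.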
SMILES,PER2::LUC luminescence (time after treatment 24 h),PER2::LUC luminescence (time after treatment 30 h)
CCOc1ccc(C(=O)c2ccc(OC)c(O)c2O)cc1,0.983,0.916
O=C1NCN(c2ccccc2)C12CCN(CCCC(c1ccc(F)cc1)c1ccc(F)cc1)CC2,0.912,0.844
COc1cccc(OC)c1OCCNCC1COc2ccccc2O1 (stereo not drawn),0.989 and 0.937,0.933 and 0.962
CCCC[S+]([O-])c1sc2nc(-c3cccs3)cc(-c3ccccc3)c2c1N (stereo not drawn),0.864,0.882
CCCCOc1c(C(=O)c2c(F)cc(C)cc2F)c[nH]c2nncc1-2,0.643,0.792
CC[C@H]1OC(=O)[C@H](C)[C@@H](O[C@H]2C[C@@](C)(OC)[C@@H](O)[C@H](C)O2)[C@H](C)[C@@H](O[C@@H]2O[C@H](C)C[C@H](N(C)C)[C@H]2O)[C@](C)(OC)C[C@@H](C)C(=O)[C@H](C)[C@@H](O)[C@]1(C)O,0.914,0.874
Nc1ccc(-c2ccc3ccccc3n2)cc1,1.74,1.29
O=[N+]([O-])c1ccc2c(c1)S(=O)(=O)C=C2,1.15,1.14
N[C@@H]1CCCCN(c2c(F)cc3c(=O)c(C(=O)O)cn(C4CC4)c3c2Cl)C1,0.831,0.902
CC(C)COC(=O)OCN1C(=O)CN(CCN2CC(=O)N(COC(=O)OCC(C)C)C(=O)C2)CC1=O,1.12,0.875
CCCCC1=NC2(CCCC2)C(=O)N1Cc1ccc(-c2ccccc2-c2nnn[nH]2)cc1,1.17,0.755
O=C(Nc1nc2ccccc2n1CCN1CCOCC1)c1cccc([N+](=O)[O-])c1,1.36,1.18
CN(C)CC[C@H](CSc1ccccc1)Nc1ccc(S(=O)(=O)NC(=O)c2ccc(N3CCN(Cc4ccccc4-c4ccc(Cl)cc4)CC3)cc2)cc1[N+](=O)[O-],0.732,0.732
CC(=O)SCC[N+](C)(C)C,1.08,1.17
C[C@H]1COC2=C1C(=O)C(=O)c1c2ccc2c1CCCC2(C)C,0.717,0.946
NC(=O)Cc1cccc(C(=O)c2ccccc2)c1N,1.23,1.14
O=C(Nc1ccc(C(=O)O)c(O)c1)c1ccccc1,1.03,1.13
CCCCOC(=O)c1ccc(N)cc1,1.06 and 1.09,1.28 and 1.2
CCCCC[C@H](O)/C=C/[C@H]1C=CC(=O)[C@@H]1CCCCCCC(=O)O,0.865,0.955
CCOC(=O)[C@H](CCc1ccccc1)N[C@@H](C)C(=O)N1[C@H](C(=O)O)C[C@@H]2CCC[C@@H]21,1.09,1.27

SMILES,PER2::LUC luminescence (time after treatment 24 h),PER2::LUC luminescence (time after treatment 30 h)
C#CCCCCCCCCCCCC(O)CC(O)CO.C=CCCCCCCCCCCCC(O)CC(O)CO (stereo not drawn),0.92,0.927
CCOc1ccc2c(c1)C(C)=CC(C)(C)N2,0.955,1.04
NC(=O)c1ncn([C@@H]2O[C@H](CO)[C@@H](O)[C@H]2O)n1,1.19,1.15
CCC(CCC(C)C1CCC2C3CCC4CC(O)CCC4(C)C3CCC12C)C(C)C (stereo not drawn),0.958,0.938
CC(C)COCC(CN(Cc1ccccc1)c1ccccc1)N1CCCC1 (stereo not drawn),0.856,0.724
CCN(Cc1ccccc1)C(=O)Cn1c(=O)n(C)c2cnc(-c3ccccc3)nc21,0.912,0.946
Cc1cc(OCC(=O)O)cc(C)c1Cc1ccc(O)c(C(C)C)c1,1.11,1.05
Cc1ccc(S(=O)(=O)n2c(N)nc3ccccc32)cc1,1.13,1.16
Cn1c(=O)c2[nH]c(C3CCCC3)nc2n(C)c1=O,0.982,0.839
CNC(=O)c1ccc(-c2cnc3ncc(Cc4ccc5ncccc5c4)n3n2)cc1F,1.2,1.09
CC1=CC2C(C(C)C)CCC(C)(O)C2CC1 (stereo not drawn),1.18,1.08
NCC(=O)Nc1ccc(-n2nc(C(F)(F)F)cc2-c2ccc3c(ccc4ccccc43)c2)cc1,0.522,0.679
COc1cc2c(cc1OC(C)C)[C@H](c1ccc(Cl)cc1)N(c1ccc(N(C)C[C@H]3CC[C@H](N4CCN(C)C(=O)C4)CC3)cc1)C(=O)C2,0.766,0.564
O=C1CCC(c2ccccc2)(C2CCN(Cc3ccccc3)CC2)C(=O)N1 (stereo not drawn),0.825,0.82
CCC(Oc1ccc(Cl)cc1)C(=O)O[C@]12CCC[C@H](CC1)N2C (mixture of isomers),0.79,0.86
CC12CCC3c4ccc(O)cc4CCC3C1CCC2O (stereo not drawn),0.721,0.751
CN[C@H](CC(C)C)C(=O)N[C@H]1C(=O)N[C@@H](CC(N)=O)C(=O)N[C@H]2C(=O)N[C@H]3C(=O)N[C@H](C(=O)N[C@H](C(=O)O)c4cc(O)cc(O)c4-c4cc3ccc4O)[C@H](O)c3ccc(c(Cl)c3)Oc3cc2cc(c3O[C@@H]2O[C@H](CO)[C@@H](O)[C@H](O)[C@H]2O[C@H]2C[C@](C)(N)[C@H](O)[C@H](C)O2)Oc2ccc(cc2Cl)[C@H]1O,0.526,1
O=C(CCCl)NCc1ccccc1,1.13,1.02
CNS(=O)(=O)Cc1ccc2[nH]cc(CCN(C)C)c2c1,1.03,1.09
